Measurements: the supplement of paper PMC6451100
The list shows a part of the results. These are enrichments in a pooled selection; single values are uncertain.

What follows are sequences tested against T1, Drosophila AGO2 (FLAG-tagged, S2-R+ lysate) (UniProt Q9VUQ5) (assay: AGO2 loading enrichment factor (IP read count / input read count, not library-size normalised) (ratio); higher = more efficient loading into AGO2). Details: randomized region: 5' 5N of miR-317 loop.
T1 sequence: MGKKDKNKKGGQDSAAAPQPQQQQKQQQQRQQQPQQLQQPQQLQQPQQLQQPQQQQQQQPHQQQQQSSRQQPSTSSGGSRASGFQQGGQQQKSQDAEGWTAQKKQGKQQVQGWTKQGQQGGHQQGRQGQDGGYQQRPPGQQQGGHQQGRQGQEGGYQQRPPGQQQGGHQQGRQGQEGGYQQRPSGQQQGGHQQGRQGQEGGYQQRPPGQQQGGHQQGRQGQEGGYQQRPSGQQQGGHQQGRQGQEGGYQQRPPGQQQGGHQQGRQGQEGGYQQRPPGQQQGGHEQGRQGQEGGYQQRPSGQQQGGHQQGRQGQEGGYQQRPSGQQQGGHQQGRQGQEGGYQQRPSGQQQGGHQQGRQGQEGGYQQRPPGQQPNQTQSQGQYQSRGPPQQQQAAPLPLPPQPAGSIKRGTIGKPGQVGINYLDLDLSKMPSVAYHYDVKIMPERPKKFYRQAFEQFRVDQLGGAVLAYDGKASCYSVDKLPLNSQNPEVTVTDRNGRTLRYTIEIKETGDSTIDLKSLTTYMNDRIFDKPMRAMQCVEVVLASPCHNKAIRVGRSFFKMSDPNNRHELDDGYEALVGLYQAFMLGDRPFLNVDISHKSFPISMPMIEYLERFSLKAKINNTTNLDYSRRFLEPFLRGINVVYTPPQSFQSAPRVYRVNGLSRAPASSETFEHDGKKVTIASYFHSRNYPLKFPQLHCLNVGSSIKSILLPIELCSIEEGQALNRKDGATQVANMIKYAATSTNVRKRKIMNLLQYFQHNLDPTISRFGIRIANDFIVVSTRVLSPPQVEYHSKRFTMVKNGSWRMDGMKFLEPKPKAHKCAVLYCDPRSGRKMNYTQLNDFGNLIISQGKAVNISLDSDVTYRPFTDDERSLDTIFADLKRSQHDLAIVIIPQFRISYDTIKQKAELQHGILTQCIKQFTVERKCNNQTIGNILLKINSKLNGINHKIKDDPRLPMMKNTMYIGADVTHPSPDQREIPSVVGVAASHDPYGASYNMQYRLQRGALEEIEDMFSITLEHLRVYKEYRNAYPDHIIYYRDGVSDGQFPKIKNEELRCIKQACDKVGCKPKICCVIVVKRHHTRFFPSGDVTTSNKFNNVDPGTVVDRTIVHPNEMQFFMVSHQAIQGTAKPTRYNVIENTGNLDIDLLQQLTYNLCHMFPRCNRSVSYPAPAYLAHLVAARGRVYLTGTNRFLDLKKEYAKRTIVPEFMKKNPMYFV
Protocol: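 HISSA: 5'-phosphorylated, 32P-labelled 20-nt ssRNA oligos (miR-317 loop, first 5 nt randomized, constant 3' part TGAAATGCAAGCAAG as printed in methods; DNA letters for RNA) incubated 1 h at 25°C in lysate of S2-R+ cells expressing FLAG-AGO2. FLAG-AGO2 was immunopurified and bound oligos were sequenced after splinted ligation. Enrichment factor = IP read count / input read count (raw counts, not library-size normalised); single library, no replicates.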
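Note: Per-sequence enrichment computed with FASTAptamer, counting only reads that carry the expected constant 3′ region.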

Row | Sequence | AGO2 loading enrichment factor
1 | GACAATGAAATGCAAGCAAG | 0.428
2 | CTGGCTGAAATGCAAGCAAG | 0.0417
3 | TCGACTGAAATGCAAGCAAG | 0.222
4 | AGTCCTGAAATGCAAGCAAG | 0.448
5 | ATACTTGAAATGCAAGCAAG | 0.347
6 | GCGATTGAAATGCAAGCAAG | 0.3
7 | GCGGTTGAAATGCAAGCAAG | 0.422
8 | GCCAGTGAAATGCAAGCAAG | 0.305
9 | TTGATTGAAATGCAAGCAAG | 0.39
10 | TGTTTTGAAATGCAAGCAAG | 0.191
11 | GTCGATGAAATGCAAGCAAG | 0.942
12 | CATAGTGAAATGCAAGCAAG | 0.286
13 | CGGTGTGAAATGCAAGCAAG | 0.647
14 | CCTCTTGAAATGCAAGCAAG | 0.601
15 | ACATGTGAAATGCAAGCAAG | 0.281
16 | GGCTGTGAAATGCAAGCAAG | 0.369
17 | TCCTGTGAAATGCAAGCAAG | 0.424
18 | CTGATTGAAATGCAAGCAAG | 0.625
19 | AACGTTGAAATGCAAGCAAG | 0.416
20 | TGATTTGAAATGCAAGCAAG | 0.352
21 | ATTCTTGAAATGCAAGCAAG | 0.217
22 | AACCTTGAAATGCAAGCAAG | 0.0808
23 | TATAATGAAATGCAAGCAAG | 0.399
24 | GAGCATGAAATGCAAGCAAG | 0.281
25 | GACTATGAAATGCAAGCAAG | 0.355

Row | Sequence | AGO2 loading enrichment factor
26 | CAGTATGAAATGCAAGCAAG | 0.376
27 | GCAGTTGAAATGCAAGCAAG | 0.293
28 | TCGAATGAAATGCAAGCAAG | 0.41
29 | ATGCCTGAAATGCAAGCAAG | 0.505
30 | CCACTTGAAATGCAAGCAAG | 0.194
31 | AGACATGAAATGCAAGCAAG | 0.386
32 | CAGCGTGAAATGCAAGCAAG | 0.319
33 | CGATCTGAAATGCAAGCAAG | 0.462
34 | TGCGGTGAAATGCAAGCAAG | 0.18
35 | ACGGGTGAAATGCAAGCAAG | 1.9
36 | AATGTTGAAATGCAAGCAAG | 0.237
37 | TGAGTTGAAATGCAAGCAAG | 0.373
38 | GAATGTGAAATGCAAGCAAG | 0.297
39 | AAGGTTGAAATGCAAGCAAG | 0.458
40 | CTTCGTGAAATGCAAGCAAG | 0.168
41 | TTTCGTGAAATGCAAGCAAG | 0.508
42 | GTGGATGAAATGCAAGCAAG | 2.17
43 | CTCTCTGAAATGCAAGCAAG | 0.225
44 | ATTGGTGAAATGCAAGCAAG | 0.436
45 | GCAGCTGAAATGCAAGCAAG | 0.0823
46 | TTAACTGAAATGCAAGCAAG | 0.398
47 | CATTCTGAAATGCAAGCAAG | 0.187
48 | CACTTTGAAATGCAAGCAAG | 0.248
49 | ACGTTTGAAATGCAAGCAAG | 0.117
